Laboratory results as given in paper PMC6602471.
Some of the results follow. At the low end of the ranking, values are background and their order means little.

The sequences below were run against T1, ELK1 (UniProt P19419) (assay: custom PBM). Conditions: custom protein-binding microarray; buffer, salt, pH and temperature not stated; high values mean tight binding; double strand, one strand shown.
T1 sequence: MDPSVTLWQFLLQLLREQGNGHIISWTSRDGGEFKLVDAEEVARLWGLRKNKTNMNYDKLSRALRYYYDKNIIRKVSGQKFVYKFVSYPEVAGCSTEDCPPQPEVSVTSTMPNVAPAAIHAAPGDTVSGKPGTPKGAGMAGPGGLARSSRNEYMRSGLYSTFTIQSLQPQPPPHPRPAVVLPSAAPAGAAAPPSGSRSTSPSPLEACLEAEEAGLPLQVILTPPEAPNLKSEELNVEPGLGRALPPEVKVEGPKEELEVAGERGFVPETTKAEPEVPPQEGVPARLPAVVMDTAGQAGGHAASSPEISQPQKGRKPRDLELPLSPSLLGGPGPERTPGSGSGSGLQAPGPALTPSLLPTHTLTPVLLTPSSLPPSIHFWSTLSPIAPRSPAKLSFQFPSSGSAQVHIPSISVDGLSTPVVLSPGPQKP

Sequence | binding signal (log fluorescence intensity)
GTGTATAGGATCCCATCCAACACATGTGTTAAAATGGTCTTGATTCGCTTGACGCTGCTG | 8.79
GTGTATAGGATCCCATCCAACACACGTGTTCAAATGGTCTTGATTCGCTTGACGCTGCTG | 8.97
TACTGACTTATATATGCGAATGCACATGAATAGACAGTCTTGATTCGCTTGACGCTGCTG | 8.79
TACTGACTTATATATGCGAATGCACATGAATAGAACGTCTTGATTCGCTTGACGCTGCTG | 8.92
CATTAATTTCTGCCCTTATTCGCACGTGCCATAACAGTCTTGATTCGCTTGACGCTGCTG | 8.95
TACTGACTTATATATGCGAATGCACATGCATAGACCGTCTTGATTCGCTTGACGCTGCTG | 8.85
TGTCGGGTAAGGGAATGTAGATCAAGTGAATGAAAAGTCTTGATTCGCTTGACGCTGCTG | 8.63
TACTGACTTATATAAGCGAATGCACATGAATAGACCGTCTTGATTCGCTTGACGCTGCTG | 8.83
GTGTATAGGATCCCATCCAACATACGTGTTAAAATGGTCTTGATTCGCTTGACGCTGCTG | 8.92
GGAAAAAGGCCCAGGGTAACACCGGAAGTGGGCCTAGTCTTGATTCGCTTGACGCTGCTG | 10.9
CGGAAGTGTCGTAAACGTCGGATATCAGGTTCTTCTGTCTTGATTCGCTTGACGCTGCTG | 9.1
TACAGACTTATATATGCGAATGCACATGAATAGACCGTCTTGATTCGCTTGACGCTGCTG | 9.04
TACTGACTTATATATGCGAATGCACATGTATAGACCGTCTTGATTCGCTTGACGCTGCTG | 8.72
GATTAATTTCTGCCGTTATTCGCACGTGCCATAACAGTCTTGATTCGCTTGACGCTGCTG | 8.89
GCTGCTGCTGTGCATACCCCACCGGATGTGACCCCGGTCTTGATTCGCTTGACGCTGCTG | 10.2
TCCGGGTACCAGCTCCACCCACTTCAGGCCTTGTAGGTCTTGATTCGCTTGACGCTGCTG | 8.92
TAAAGGGAAGACGGTTGTGGTAGTTGCGGGTATTAAGTCTTGATTCGCTTGACGCTGCTG | 8.81
TTCTGACTTATATATGCGAATGCACATGAATAGACCGTCTTGATTCGCTTGACGCTGCTG | 8.82
TAAAGGGAAGACGGTTGTGGTAGTTCCAGGTATTAAGTCTTGATTCGCTTGACGCTGCTG | 9.02
GCTGCTGCGGTGCATACCCCACCGGATATGACCCCGGTCTTGATTCGCTTGACGCTGCTG | 9.88
TGTCGGGTAGGGGAATGTAGATCACGTGAATGAAAAGTCTTGATTCGCTTGACGCTGCTG | 8.76
TAAAGGGAAGACGGTTGTGGAAGTTCCGGGTATTAAGTCTTGATTCGCTTGACGCTGCTG | 11.4
GCTGCTGGGGTGCATACCCCACCGGATGTGACCCCGGTCTTGATTCGCTTGACGCTGCTG | 9.94
TACTCACTTATATATGCGAATGCACATGAATAGACCGTCTTGATTCGCTTGACGCTGCTG | 8.9
GATTAATTTCTGCCCTTATTCGAACGTGCCATAACAGTCTTGATTCGCTTGACGCTGCTG | 8.94
GTGTATAGTATCCCATCCAACACACGTGTTAAAATGGTCTTGATTCGCTTGACGCTGCTG | 8.93

Sequence | binding signal (log fluorescence intensity)
CAGCATAGGACTTCGTCCCTGAAGCAATTGATAACCGTCTTGATTCGCTTGACGCTGCTG | 8.96
TCCGGCTACCAGCTCCACCCACTTCAGGCATTGTAGGTCTTGATTCGCTTGACGCTGCTG | 8.89
CAGCATAGGACTTCTTCCCTGAGGCAATTGATAACCGTCTTGATTCGCTTGACGCTGCTG | 8.96
TACTGACTTATATATGCGAAAGCACATGAATAGACCGTCTTGATTCGCTTGACGCTGCTG | 8.75
CAGTATAGGACTTCTTCCCTGAAGCAATTGATAACCGTCTTGATTCGCTTGACGCTGCTG | 8.93
GATTAATTTCTGCCCTTATTCGCACGTCCCATAACAGTCTTGATTCGCTTGACGCTGCTG | 8.83
TAAAGGGAAGACGGTTGTGGTAGTTCCGGGTCTTAAGTCTTGATTCGCTTGACGCTGCTG | 11.2
CAGCATAGGACTTCTTCCCGGAAGCAATTGATAACCGTCTTGATTCGCTTGACGCTGCTG | 10.9
CGGAAGTGTCGTAAACGTCGGATATCTGGTTCTTCTGTCTTGATTCGCTTGACGCTGCTG | 9.04
CACAATTTTTACAGTAATGTAGCACGCGTATCTCCTGTCTTGATTCGCTTGACGCTGCTG | 8.73
GCTGCTGCGGTGCATACCCCACCGGATGTGATCCCGGTCTTGATTCGCTTGACGCTGCTG | 10.2
TACTGACTTATATCTGCGAATGCACATGAATAGACCGTCTTGATTCGCTTGACGCTGCTG | 8.83
TAAGGGGAAGACGGTTGTGGTAGTTCCGGGTATTAAGTCTTGATTCGCTTGACGCTGCTG | 11.3
TAAAGGGAAGACGATTGTGGTAGTTCCGGGTATTAAGTCTTGATTCGCTTGACGCTGCTG | 11.1
GATTAATTTCTGCCCTTATTCGCACGTGCAATAACAGTCTTGATTCGCTTGACGCTGCTG | 8.87
TAAAGGGAAGACGGTTGTGGTAGTTCCCGGTATTAAGTCTTGATTCGCTTGACGCTGCTG | 9.18
CGGAAGTGTCGTAAACGTCGGATATCCCGTTCTTCTGTCTTGATTCGCTTGACGCTGCTG | 9.22
TAAAGGGAAGACGGTTGTGGTAGTTCCGGGTACTAAGTCTTGATTCGCTTGACGCTGCTG | 11.3
GCTGCTGCGGTGCATACTCCACCGGATGTGACCCCGGTCTTGATTCGCTTGACGCTGCTG | 10.1
GGAATAAGGCCCAGGGTAACACCGGAAGTGGGCTTAGTCTTGATTCGCTTGACGCTGCTG | 10.9
GCTGCTACGGTGCATACCCCACCGGATGTGACCCCGGTCTTGATTCGCTTGACGCTGCTG | 10.3
TCCGGCTACCAGCTCTACCCACTTCAGGCCTTGTAGGTCTTGATTCGCTTGACGCTGCTG | 8.98
GCTGCTGCGGTGCATACCCGACCGGATGTGACCCCGGTCTTGATTCGCTTGACGCTGCTG | 10.5
CAGCATAGGACTTTTTCCCTGAAGCAATTGATAACCGTCTTGATTCGCTTGACGCTGCTG | 8.75
GTGTATAGGATCCCATCCGACACACGTGTTAAAATGGTCTTGATTCGCTTGACGCTGCTG | 9.14
TAAAGGGAAGACAGTTGTGGTAGTTCCGGGTATTAAGTCTTGATTCGCTTGACGCTGCTG | 11.2
